ChEMBL document CHEMBL1201862, “PubChem BioAssay data set” (2004)
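Grown in 96-well plates, cells were treated for 48 hours with each compound at five concentrations. Insufficient inhibition: endpoint recorded as highest concentration tested. GI50 marks 50% less growth.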 Active and inactive are the calls of the source. Cut-off read from the data, not from the text of the source: active = GI50 up to about 1.1 µM and inactive = higher.

What follows are compounds tested on NCI-H322M (assay: DTP human tumour cell line panel, 48 h).

How did the GI50 turn out when C=C(C)C1CC=C(C(=O)O)CC1 (stereo not given) was run?
The GI50 was inactive: 1460 µM.

With Clc1ccccc1NN(Cc1ccncc1)c1ccccc1Cl as the compound, how does the GI50 read?
Its GI50 is inactive: 14 µM.

CC(C)(CCc1nc2ccccc2[nH]1)C(=O)O was tested. Which GI50 did it give?
Its GI50 is inactive: > 100 µM.

For Nc1ccc2c(c1)N(C(=O)c1cc3cc(NC(=O)c4cc5ccccc5o4)ccc3[nH]1)CC2CCl (stereo not given), which GI50 is on record?
The GI50 was active: 0.134 µM.

With CC(=O)c1sc2c(c1OC(=O)c1ccc(Cl)cc1)c(=O)n(-c1ccccc1)c(=S)n2-c1ccccc1 as the compound, how does the GI50 read?
The GI50 was inactive: 3.49 µM.

For C=CCCN1CCc2c([nH]c3ccccc23)C1C(=O)O (stereo not given), which GI50 is on record?
Its GI50 is inactive: > 100 µM.

CN(O)C(=O)c1cccc(Cl)c1 was tested. Which GI50 did it give?
Its GI50 is inactive: > 100 µM.

C/C(=N\c1ccc(Cl)cc1)c1ccncc1 was tested. Which GI50 did it give?
The GI50 was inactive: > 100 µM.

C[C@]12CC[C@H]3[C@@H](CC=C4C[C@@H](N5CCCC5)CC[C@@]43C)[C@@H]1C[C@H](N1CCCCC1)[C@@H]2O was tested. Which GI50 did it give?
Its GI50 is inactive: 76.6 µM.

Which GI50 does the source give for CC1(C)C=N[N+]2(C)C3C=CC(CC3)C12 (stereo not given) here?
Its GI50 is inactive: > 10 µM.

How did the GI50 turn out when C[N+]1([O-])CCC(O)(C2CC2)CC1 (stereo not given) was run?
The GI50 was inactive: > 100 µM.

For O=C1N=C(c2ccccc2)O/C1=C\c1ccccc1, which GI50 is on record?
Its GI50 is inactive: > 100 µM.

For CC(C)(C)OC(=O)NCCNC(=O)CN(CC(=O)O)C1CCCCC1N(CC(=O)O)CC(=O)O (stereo not given), which GI50 is on record?
The GI50 was inactive: > 100 µM.

How did the GI50 turn out when O=C(O)CCC[C@]1(O)O[C@@]2(CCCC2=O)[C@]2(O)CCC[C@@]21O was run?
Its GI50 is inactive: > 100 µM.

For O=C1OC2C(O)COC2(O)C1(O)C(C[N+](=O)[O-])c1ccc(Cl)cc1 (stereo not given), which GI50 is on record?
The GI50 was inactive: 16.4 µM.

How did the GI50 turn out when CC(=O)NS(=O)(=O)c1ccc(NC(=O)c2c3ccccc3nc3ccccc23)cc1 was run?
Its GI50 is inactive: > 100 µM.

CCCC/C=C1\CCC(C)(CN(C)C)C1=O (stereo not given) was tested. Which GI50 did it give?
Its GI50 is inactive: > 100 µM.

Which GI50 does the source give for COc1cc2c(cc1OCCN1CCN(CCOc3cc4c(cc3OC)C(=O)N3CCC[C@H]3C=N4)CC1)N=C[C@@H]1CCCN1C2=O here?
The GI50 was inactive: > 67.5 µM.

CCOc1ccc(NC(=O)CCc2nnc(SC)o2)cc1 was tested. Which GI50 did it give?
Its GI50 is inactive: > 100 µM.

How did the GI50 turn out when COC(=O)/C=C/[C@@H]1[C@H](C)N1S(=O)(=O)c1ccc(C)cc1 (stereo not given in full) was run?
Its GI50 is inactive: > 100 µM.

For CCCCOP1(=O)C=C(C)C(=C(Cl)Cl)C(C)=C1 (stereo not given), which GI50 is on record?
Its GI50 is inactive: 17.7 µM.

With CC(C)[C@H](NC(=O)[C@H](N)Cc1ccc(N(CCCl)CCCl)cc1)C(=O)O as the compound, how does the GI50 read?
Its GI50 is inactive: > 100 µM.

How did the GI50 turn out when C/C=C1\CC2C(=O)CCC2C2c3ccccc3OC12 (stereo not given) was run?
The GI50 was inactive: > 100 µM.

With CCCCCC(=O)OC[n+]1ccc2c(C)c3[nH]c4ccccc4c3c(C)c2c1 as the compound, how does the GI50 read?
The GI50 was active: 0.971 µM.

For O=c1oc2ccccc2c2c1Sc1ccccc1N2, which GI50 is on record?
The GI50 was inactive: 55.3 µM.

Cc1c(N)c(C#N)c2n(C)c3ncccc3n2c1=O was tested. Which GI50 did it give?
The GI50 was inactive: > 100 µM.

How did the GI50 turn out when Cc1n[nH]c(=S)n(C)c1=S was run?
The GI50 was inactive: > 100 µM.

CCOC(=O)C1C(=O)CC(C)(O)C(C(=O)OCC)C1c1ccc(O)c(OC)c1 (stereo not given) was tested. Which GI50 did it give?
Its GI50 is inactive: > 100 µM.

With CCOC(=O)CCC(NC(=O)OCc1ccccc1)C(=O)NNC(=O)OC(C)(C)C (stereo not given) as the compound, how does the GI50 read?
The GI50 was inactive: > 100 µM.

With C=C1C(=O)O[C@H]2C[C@@H]1[C@@H](O)[C@H](O)[C@@H](C)CCCC(C)=CCC[C@@]2(C)O as the compound, how does the GI50 read?
The GI50 was inactive: > 100 µM.

How did the GI50 turn out when Cc1cc(C)cc(C(=N)c2ccccc2Cc2cccc3ccccc23)c1 was run?
Its GI50 is inactive: 16.8 µM.

How did the GI50 turn out when C#CC1(O)C(COP(=O)(O)OCC2OC(n3ccc(NCCCCCCCCCCCCCCCCCC)nc3=O)C(O)C2O)OC(n2ccc(N)nc2=O)C1O (stereo not given) was run?
Its GI50 is active: 0.824 µM.

With CC1(C)C(=NN=C(N)N)C(C)(C)C1=NN=C(N)N as the compound, how does the GI50 read?
Its GI50 is inactive: > 100 µM.

CCc1cc2c(oc3c4ccccc4ccc23)c(=O)[nH]1 was tested. Which GI50 did it give?
The GI50 was inactive: > 10 µM.

For Nc1ncnc2c1ncn2[C@@H]1O[C@H](COC(c2ccccc2)(c2ccccc2)c2ccccc2)[C@@H](OC(=S)Oc2ccccc2)[C@@H]1F, which GI50 is on record?
Its GI50 is inactive: 16 µM.

Which GI50 does the source give for CC[N+](C)(CC)CCC(O)(c1ccccc1)c1ccccc1 here?
Its GI50 is inactive: > 100 µM.

For COc1ccc(C(CC(=O)C(C)(C)CN2CCCCC2)SCCS(=O)(=O)O)cc1 (stereo not given), which GI50 is on record?
Its GI50 is inactive: 38 µM.

For C/C=C(\C)C(=O)OC1CC(OC(C)=O)C2(C(=O)OC)COC3C2C1(C)C1C2(C(=O)OC)OCC1(C3O)C1(O)C3CC(C4(O)C=COC4O3)C1(C)O2 (stereo not given), which GI50 is on record?
The GI50 was inactive: > 100 µM.

O=c1c2cc(Br)ccc2nc(-c2ccccc2Cl)n1NCC1(O)OCC(O)C(O)C1O (stereo not given) was tested. Which GI50 did it give?
Its GI50 is inactive: > 100 µM.

Which GI50 does the source give for Cc1ccccc1C1OC(=O)c2ccc3ccccc3c21 (stereo not given) here?
The GI50 was inactive: 3.22 µM.

With C[C@@]1(O)CC[C@]2(C)C3CCCC3[C@H]12 (stereo not given in full) as the compound, how does the GI50 read?
Its GI50 is inactive: > 100 µM.

O=C(Nc1cc(Cl)ccc1Cl)c1cc2cccc(Br)c2oc1=O was tested. Which GI50 did it give?
The GI50 was inactive: > 100 µM.

With Cn1c(-c2cccs2)cc(-c2cccs2)c1-c1cccs1 as the compound, how does the GI50 read?
Its GI50 is inactive: > 100 µM.

COc1ccc2nc3ccc(OC)cc3c([S+]([O-])Cc3ccccc3)c2c1 (stereo not given) was tested. Which GI50 did it give?
Its GI50 is inactive: 18 µM.

With CC(=O)N(O)[C@@H]1CC[C@H](n2cnc3c(N)ncnc32)C1 as the compound, how does the GI50 read?
Its GI50 is inactive: > 100 µM.
